Drawing on PubChem BioAssay AID488969 (Vanderbilt High Throughput Screening Facility, 2010), this text covers z-score for 107 molecules.

Whole data set: some 110,000 compounds, median “z-score” near -0.1, cut for the highest 2% near 2. The list shows a part of the results. Calls of active or inactive are those of the source.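 The calls were made as follows: active = z-score in the third read window above 3 or below -3; inactive = the rest.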

This assay deals with Metabotropic glutamate receptor 8 (Rattus norvegicus) (UniProt P70579). The assay can be described thus: mGluR8 Gi/Go-coupled signaling modulation – cell-based, rat, thallium flux, HTS, primary screen (AID 488969). Conditions: HEK293 rat mGluR8, GIRK (G protein-gated inwardly rectifying potassium channel) thallium flux, FluoZin2; at 10 µM; stronger effect = higher value; submaximal glutamate (EC20) added with thallium.
Chain of UniProt P70579 (P70579 whole entry, looked up): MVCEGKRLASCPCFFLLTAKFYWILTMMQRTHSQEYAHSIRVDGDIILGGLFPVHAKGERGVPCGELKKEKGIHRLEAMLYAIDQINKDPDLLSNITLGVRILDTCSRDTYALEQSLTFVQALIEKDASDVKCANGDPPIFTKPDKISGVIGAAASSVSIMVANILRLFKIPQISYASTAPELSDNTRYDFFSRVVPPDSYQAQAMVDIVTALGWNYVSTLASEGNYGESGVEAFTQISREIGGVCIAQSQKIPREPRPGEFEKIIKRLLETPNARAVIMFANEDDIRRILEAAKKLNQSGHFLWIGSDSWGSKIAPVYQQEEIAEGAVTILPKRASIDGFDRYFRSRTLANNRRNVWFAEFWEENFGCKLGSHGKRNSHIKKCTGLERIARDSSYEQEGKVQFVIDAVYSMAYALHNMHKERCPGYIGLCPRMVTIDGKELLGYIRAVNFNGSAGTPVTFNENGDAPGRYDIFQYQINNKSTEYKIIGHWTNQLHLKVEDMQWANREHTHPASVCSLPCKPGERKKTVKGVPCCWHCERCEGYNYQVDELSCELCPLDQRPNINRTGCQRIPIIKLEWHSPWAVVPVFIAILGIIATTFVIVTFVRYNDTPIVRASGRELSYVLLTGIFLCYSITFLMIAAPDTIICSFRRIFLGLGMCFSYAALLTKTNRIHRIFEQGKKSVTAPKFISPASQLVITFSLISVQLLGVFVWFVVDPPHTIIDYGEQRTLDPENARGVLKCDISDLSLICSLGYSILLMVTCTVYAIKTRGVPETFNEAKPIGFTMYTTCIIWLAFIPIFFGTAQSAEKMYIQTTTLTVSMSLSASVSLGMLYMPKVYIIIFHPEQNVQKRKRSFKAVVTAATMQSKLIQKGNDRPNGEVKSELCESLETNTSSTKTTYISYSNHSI
Turning to `CN(c1cccc(NC(=O)c2ccccc2N(C)S(C)(=O)=O)c1)S(C)(=O)=O`, the z-score is -0.0724.
With `CCOC(=O)c1[nH]c(C)c(C(=O)NCc2ccc(OC)cc2)c1C`, the z-score is -0.442.
Molecule `Cc1cccc(-c2noc(CCC(=O)NCc3ccco3)n2)c1` had a z-score of -0.178.
`CCCn1nc(-c2nnc(-c3ccc(C)c(C)c3)o2)c2ccccc2c1=O`: the z-score stood at 0.372.
As for `Cc1[nH]nc(N=CC2=C(O)CC(C)(C)CC2=O)c1-c1ccccc1`, the figure is -0.178; as for `COc1ccc(C2Nc3ccc4ccccc4c3-c3c2c(=O)oc2ccccc32)cc1` (configuration not stated), 0.892.
For the molecule `CCn1c(SCC(=O)c2c[nH]c3ccccc23)nc2cc(S(=O)(=O)N3CCOCC3)ccc21`, the z-score was -0.307.
As for `CC1=NN(c2ccccc2)C(=O)/C1=C/c1c(O)n(-c2ccc(F)c(Cl)c2)[nH]c1=O`, the z-score was -0.788.
The molecule `CCCCc1nc(SCC(=O)Nc2ccc(S(N)(=O)=O)cc2)n[nH]1` gave a z-score of -0.0229.
Molecule `O=C(Nc1ccc2c(c1)OCO2)C1CCN(S(=O)(=O)c2cccc3cccnc23)CC1` gave a z-score of -0.165.
Molecule `O=[N+]([O-])c1ccc([C@H](O)[C@H](CO)N=Cc2ccccc2O)cc1` registered a z-score of -0.236.
For the molecule `CCCN(CCC)CCNC(=O)C(NS(=O)(=O)c1ccc2c(c1)CCC(=O)N2)c1ccccc1` (configuration not stated), the z-score was active: 10.
As for `Cc1ccc(C(=O)NNC(=O)c2cccnc2SCc2cccc([N+](=O)[O-])c2)cc1`, the figure is -0.0883; as for `C/C(=C\C(=O)c1cccnc1)Nc1ccc(C)c(C)c1`, 0.541; as for `CCOC(=O)C1CCN(c2c(NCCCN(CC)c3ccccc3)c(=O)c2=O)CC1`, 0.189.
In the case of `O=C(c1cc2nc(-c3cccs3)cc(C(F)(F)F)n2n1)N1CCCc2ccccc21`, the z-score is -0.37.
`Cc1cccc(NS(=O)(=O)c2c(C)n[nH]c2C)c1` registered a z-score of -0.177.
For `CN1C(=O)/C(=C/c2ccccc2OCc2cccc(F)c2)N(C)C1=S`, the z-score is -0.268.
The molecule `C/C=C/c1ccccc1OCc1ccc(C(=O)O)o1` displayed a z-score of -1.02.
In the case of `CC(=O)N(CN1C(=O)c2ccc([N+](=O)[O-])cc2C1=O)c1ccc(F)cc1`, the z-score is -0.119.
The same measure for `C/C(=N\NC(=O)c1ccccc1)c1cc2cc([N+](=O)[O-])ccc2oc1=O`: -0.275; for `COc1ccc(/C=N/NC(=O)c2ccccc2Cl)cc1CSc1nc2ccccc2s1`: 0.259.
The same measure for `O=C(CN1CCN(c2ccccc2F)CC1)c1ccc2cc[nH]c2c1`: -0.111; for `O=c1nc2ccccc2c2n1CC(CN1CCN(c3cccc(Cl)c3)CC1)N2` (configuration not stated): -0.206.
As for `CC(=O)C1(O)C(C)CC2C3CCC4CC(O)CCC4(C)C3=CCC21C` (configuration not stated), the figure is 0.00674; as for `N#CC(C(=O)Nc1ccccc1)=C1Nc2ccccc2N1`, -0.369; as for `Cc1ccc(NC(=S)NCC2CCCO2)c(OC(F)F)c1` (configuration not stated), 0.621.
Consider `CCCCOc1cccc(C(=O)N(Cc2cccs2)C2CCS(=O)(=O)C2)c1` (configuration not stated), for which the z-score is -1.45.
`COc1ccc(-c2nc3ccccc3c(=O)n2CCCN2CCOCC2)cc1` showed a z-score of -0.264.
The same measure for `Cc1ccc2c(c1)C(c1ccc([N+](=O)[O-])cc1)=NNC(c1ccc(Br)cc1)=N2`: -0.123.
In turn, `O=C(NCC1CCCO1)C(c1cccs1)N(C(=O)Cn1nnc(-c2cccs2)n1)C1CCCC1` (configuration not stated) showed a z-score of -0.378.
As for `O=C(NC(=S)Nc1ccccn1)c1cc(-c2ccccc2)nc2ccccc12`, the figure is active: 3.22; as for `CCc1cc(C(=O)OC)c(N2C(=O)C3C4C=CC(C4)C3C2=O)s1` (configuration not stated), 0.0635; as for `Cc1ccc(S(=O)(=O)N2CCN(S(=O)(=O)N3CCOCC3)CC2)c(C)c1`, -1.14.
In turn, `CCOC(=O)c1c(C)c(C(=O)NCc2ccccc2OC)c(C)n1C` registered a z-score of -0.402.
`COCCn1c(SCC(=O)Nc2ccc(S(=O)(=O)N3CCOCC3)cc2)nc2ccccc21` returned a z-score of -1.59.
Molecule `CCc1nn2c(=O)cc(CSc3nc(C)cc(=O)[nH]3)nc2s1` gave a z-score of -0.245.
The same measure for `Cc1noc(C(=O)Nc2cccnc2)c1Cl`: -0.119; for `CCn1c2ccccc2c2cc(NC(=O)C(C)Oc3ccc(OC)cc3)ccc21` (configuration not stated): -0.27; for `Cc1ccc(-c2cc(-c3ccccc3C)[nH]n2)c(O)c1`: -0.115.
`O=C(N/N=C/C=C/c1ccco1)c1cccnc1` had a z-score of 0.249.
`CCOC(=O)N1C(=O)C2(CCCCC2)N(c2ccccc2Cl)C1=S`: the z-score was 0.172.
The same measure for `CCCn1nc(C(=O)N2CCc3ccccc3C2)c2ccccc2c1=O`: -1.93.
As for `COC(=O)c1cc2ccsc2n1CC(=O)N(C)c1ccccc1`, the figure is -0.42.
Take `O=C(N/N=C/c1c[nH]c2ccccc12)C1COc2ccccc2O1` (configuration not stated): the z-score was -0.169.
In the case of `O=C(CCCN1C(=O)c2ccccc2C1=O)Oc1ccc(Cl)cc1`, the z-score was -0.318.
The same measure for `Cn1c(=O)c2c(nc(CN3CCN(c4ccccc4F)CC3)n2CCN2CCOCC2)n(C)c1=O`: 0.0673; for `O=C(NCCC1=CCCCC1)c1ccc(CN2CCOCC2)cc1`: -0.423.
`Cc1ccc(CN(C(=O)Cc2cccs2)C(C(=O)NC2CCCC2)c2ccncc2)cc1` (configuration not stated) had a z-score of -0.319.
Regarding `CCn1c(CSc2nc3ccccc3s2)nnc1SCC(=O)NCC(=O)OC`, the z-score was -0.0142.
As for `O=C(Nc1nccs1)NC1CCCCC1`, the figure is 1.72.
`O=[N+]([O-])c1ccc(Oc2ccc(S(=O)(=O)N3CCCCC3)cc2)cc1` returned a z-score of 0.0199.
With `NS(=O)(=O)c1ccc(NCc2cc(Cl)ccc2OCc2ccccc2F)cc1`, the z-score is -0.074.
The molecule `Cc1c(Cc2ccccc2)c(=O)oc2cc(OCC(=O)c3ccccc3)ccc12` had a z-score of -0.276.
For the molecule `C=CCn1c(SCC(=O)N2CCCCC2)nc(O)cc1=O`, the z-score was 0.59.
As for `O=C(CCC(=O)NC1CCCCCC1)Nc1nnc(C(F)(F)F)s1`, the figure is -0.133.
As for `O=c1[nH]c(NCc2ccco2)nnc1Cc1ccccc1Cl`, the figure is -0.29.
For `CC1N=C2c3ccccc3N=C(SCc3cc(=O)n4cc(Cl)ccc4n3)N2C1=O` (configuration not stated), the z-score was -1.82.
Regarding `Cc1ccccc1-n1c(-c2csc(C)c2C)n[nH]c1=S`, the z-score was -0.0223.
`CC(C)(C)C(=O)Cn1c(=N)n(Cc2ccccc2Cl)c2ccccc21` had a z-score of 1.8.
In turn, `Cc1ccc(-c2nn(C)c(=O)c3ccccc23)cc1S(=O)(=O)NCCN1CCOCC1` yielded a z-score of 0.0109.
As to `O=C(NC(Cc1c[nH]c2ccccc12)c1nnc2n1CCCCC2)c1ccccc1` (configuration not stated), the z-score was 0.155.
The molecule `CC(C)Cc1nc2oc3c(NCC4CCCO4)ncnc3c2c2c1CCC2` (configuration not stated) displayed a z-score of -1.17.
In turn, `Cn1c(CC(=O)Nc2ccccc2)nnc1SCC(=O)c1ccccc1` came in with a z-score of -0.152.
In turn, `Cc1sc(NC(=O)c2oc3ccccc3c2C)c(C#N)c1C` had a z-score of 1.76.
The same measure for `COC(=O)c1ccc(CNC(=O)COc2ccccc2Br)o1`: 0.0873.
For `Cc1cc(C(=O)CSc2nc3ccccc3c(=O)[nH]2)c(C)n1C`, the z-score was -0.296.
`CCCCCNc1nc(NCCCO)c(C#N)c2c1CN(C)CC2` returned a z-score of -0.528.
The molecule `Cc1cccc(C(=O)N/N=C/c2ccccn2)c1` returned a z-score of -0.473.
With `O=S(=O)(c1cccs1)N1CCCc2cccc(O)c21`, the z-score was -0.229.
As to `CCOC(=O)CCSc1nc(C)c2cc(C)ccc2n1`, the z-score is -0.619.
Take `CCOC(=O)c1csc(NC(=O)CSc2nnnn2-c2ccc3c(c2)OCCO3)n1`: the z-score is -0.588.
`Cc1ccc(S(=O)(=O)Nc2ccc(NC(=O)Nc3cccc(C(F)(F)F)c3)cc2)cc1` returned a z-score of -0.0732.
`CCOC(=O)C1=C(C)NC(=S)NC1c1ccc(OC(=O)c2ccco2)cc1` (configuration not stated) showed a z-score of -0.4.
Take `COC(=O)c1cccc(NC(=O)c2nn(C(C)C)c(=O)c3ccccc23)c1`: the z-score is -0.226.
With `NC(=O)C1CCN(c2nc(-c3ccccc3)nc3ccccc23)CC1`, the z-score amounted to 0.964.
For the molecule `CC(C)c1cc(C(F)(F)F)n2nc(C(=O)Nc3ccc4c(c3)OCO4)cc2n1`, the z-score was active: 4.57.
As for `N/C(=N\OC(=O)c1ccc(Cl)c(Cl)c1)c1ccccn1`, the figure is -0.312.
`Cc1ccc(/C=C(\NC(=O)c2ccc(C)cc2)c2nc(=S)[nH][nH]2)cc1` displayed a z-score of 0.31.
The molecule `Cc1ccc(/C=N/n2c(C3CCCCC3)n[nH]c2=S)s1` gave a z-score of 0.644.
As for `COc1ccc2c(c1)C1CC(C)(NC(=O)C1S(=O)(=O)c1ccc(F)cc1)O2` (configuration not stated), the figure is 0.102; as for `COc1cccc(C(=O)NCCN2CCOCC2)c1`, -0.427; as for `O=C(CCC(=O)Nc1ccccc1)NCCO`, 0.33.
The molecule `Cc1ccccc1-c1nc(CS(=O)CC(=O)NCCN2CCOCC2)c(C)o1` (configuration not stated) gave a z-score of -0.705.
Consider `COc1ccccc1C(OC(=O)c1cccs1)C(=O)NCC1CCCO1` (configuration not stated), for which the z-score is -0.383.
The same measure for `COc1ccc(NC(C)=O)cc1NC(=O)CSc1nnc(-c2ccccc2)n1N`: 0.00205; for `CC(C)c1ccc(N2CC(C(=O)Nc3nccs3)CC2=O)cc1` (configuration not stated): -1.9.
`CS(=O)(=O)NCCSCc1c(Cl)cccc1Cl` had a z-score of -0.0833.
Consider `CSc1nsc(SC)c1C(=O)NCCNS(=O)(=O)c1ccc(C)cc1`, for which the z-score is -0.3.
As for `O=C(CNC(=O)c1ccc(Cl)cc1Cl)OCC(=O)c1ccc2c(c1)OCCO2`, the figure is -1.64.
Take `CN(C)c1ccc(C2C3=C(CCCC3=O)OC3=C2C(=O)CCC3)cc1`: the z-score was determined as 0.0253.
The molecule `Cc1cc(C)n(-c2nc3nonc3nc2Nc2cccc(C)c2C)n1` returned a z-score of 0.723.
The same measure for `Cn1c(CN2CCCCC2)nc2cc(NS(=O)(=O)c3ccc(Cl)cc3)ccc21`: -0.00564.
Take `Cc1ccc(C2CC(c3ccco3)=NN2S(C)(=O)=O)cc1` (configuration not stated): the z-score was 0.339.
Take `CC1CCCC(C)N1S(=O)(=O)c1ccc(S(=O)(=O)NCCc2ccncc2)cc1` (configuration not stated): the z-score is -0.221.
Turning to `Cc1ccc(NC(=O)C2CC(=O)n3ncnc3N2)cc1` (configuration not stated), the z-score was -0.235.
For `Cc1sc2nc(CSc3ccc([N+](=O)[O-])c(C(F)(F)F)c3)[nH]c(=O)c2c1C`, the z-score was -0.255.
`COc1ccc(C2CC(=O)N3CN(c4ccc(C)c(Cl)c4)CSC3=C2C#N)cc1` (configuration not stated) displayed a z-score of -0.0211.
The same measure for `CCOC(CNC(=O)CCc1c(C)nc2nc(C)nn2c1C)OCC`: -0.308; for `Cc1nc2sc(C(=O)O)c(N)c2c2c1COC(C)(C)C2`: -0.201.
Turning to `COc1ccc(CNC(=O)c2c(C)cc(=O)oc2C)cc1OC`, the z-score is -1.14.
As for `COc1ccc(C(=O)N/C(=C\c2cccc3ccccc23)C(=O)NCCc2c[nH]c3ccccc23)cc1OC`, the z-score is -1.59.
In the case of `Cc1cccc(C(=O)Nc2nccs2)c1[N+](=O)[O-]`, the z-score is -0.0652.
As to `CC12CC3CC(C)(C1)CC(CN1CCOCC1)(C3)C2`, the z-score was -0.06.
As for `COc1ccc(/C=C2/SC(=O)N(CCC(=O)Nc3ccc(C)cc3)C2=O)cc1OC`, the figure is -0.582; as for `CCOC(=O)Cn1nnnc1CN(Cc1ccc(OC)cc1)Cc1cc2cc(C)cc(C)c2[nH]c1=O`, 0.139.
For `Cc1ccccc1CSCCNC(=O)c1ccc(Cl)c(S(=O)(=O)N2CCOCC2)c1`, the z-score was -0.66.
